Source: PubChem BioAssay (NCATS)
This list was built around the results that the source calls inconclusive (neither active nor inactive); the mix of calls is not that of the screen. No potency is given beside an inconclusive call; the fits are too rough. The source made the active and inactive calls. The call rests on the fitted dose curve; in most records, active means well fitted inhibition curve with a large enough effect; inconclusive means small, poorly fitted or top-dose-only effect; inactive means no such curve, though single readings can be large or run the other way.

Experiment: Primary fluorescence-based thiol-reactive (MSTI) qHTS assay for identification of artifact compounds. (AID 1845221);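 further: thiol-reactive compounds lower the probe fluorescence signal; nearly all actives have a fitted effect of over 65% in size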
Details: MSTI thiol-reactivity probe, 1 h; series mostly up to 53.8 µM
In short: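 First, 4 uM MSTI in 2% DMSO/PBS pH 7.4 was dispensed; next, compounds were added; then plates sat 1 h at room temperature without light. Finally, emission at 598 nm was recorded.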
Potency means the concentration at half of the fitted maximal effect; tags describe the fitted curve by direction and shape.

| SMILES | Potency |
| --- | --- |
| Fc1cc(F)c2c(c1)[C@H]1C=CC[C@H]1C(c1cccnc1)N2 (some centres not stated) | inconclusive [inhibitor, partial curve] |
| CC[C@H](O)[C@@H](C)[C@H]1O[C@@H]1C[C@H](C)/C=C/C=C(\C)[C@H]1OC(=O)C[C@H](O)CC[C@@](C)(O)[C@@H](OC(C)=O)/C=C/[C@@H]1C | inconclusive [inhibitor, single point] |
| CCc1[nH]c2ccc(OC)cc2c1CCN(C)C | inconclusive [inhibitor, partial curve, poor fit] |
| CN1CCC[C@@H]1Cc1c[nH]c2ccc(Nc3ncccc3[N+](=O)[O-])cc12 | active: 1.68 µM |
| C=C1[C@@H]2CC[C@@]3(C)[C@H](c4ccoc4)OC(=O)C[C@]13O[C@H]1CC(=O)C(C)(C)[C@H](C(OC(C)=O)C(=O)OC)[C@]12C (some centres not stated) | inactive |
| CS[C@]1(CO)C(=O)N2[C@H]3C(=CC=C[C@@H]3O)C[C@@]2(SC)C(=O)N1C | inconclusive [inhibitor, partial curve, poor fit] |
| C[C@H]1O[C@@H](O[C@H]2CC[C@]3(C=O)C4CC[C@]5(C)[C@@H](C6=CC(=O)OC6)CC[C@]5(O)[C@@H]4CC[C@]3(O)C2)C[C@@H](O)[C@@H]1O (some centres not stated) | inactive |
| CC(C)=CCC[C@]1(C)C=Cc2c(O)c3c(c(CC=C(C)C)c2O1)O[C@]12C(=C[C@@H]4CC1C(C)(C)O[C@@]2(C/C=C(/C)C(=O)O)C4=O)C3=O | inconclusive [inhibitor, partial curve] |
| CC(C)[C@H]1OC(=O)[C@H](Cc2ccccc2)N(C)C(=O)[C@@H](C(C)C)OC(=O)[C@H](Cc2ccccc2)N(C)C(=O)[C@@H](C(C)C)OC(=O)[C@H](Cc2ccccc2)N(C)C1=O | inactive |
| COc1cc(C(=O)O[C@H]2[C@@H]3C=CO[C@@H](O[C@@H]4O[C@H](CO)[C@@H](O)[C@H](O)[C@H]4O)[C@@H]3[C@@]3(CO)O[C@@H]23)ccc1O | inconclusive [inhibitor, partial curve, poor fit] |
| CC[C@H]1C[C@@H]2CC[C@@H](O2)[C@@H](C)C(=O)O[C@H](CC)C[C@H]2CC[C@H](O2)[C@H](C)C(=O)O[C@@H](C)C[C@@H]2CC[C@@H](O2)[C@@H](C)C(=O)O[C@H](CC)C[C@H]2CC[C@H](O2)[C@H](C)C(=O)O1 | inconclusive [inhibitor, partial curve] |
| S=C(NC1CCCCC1)N1CCC(c2cnc[nH]2)CC1 | inactive |
